Laboratory results reported in the supplement of paper PMC12067230.
Single values of this set are uncertain.

Assay: amyloid nucleation score relative to library mode (yeast Sup35 reporter selection) (log enrichment difference); higher = more amyloid nucleation; sequences are the first 22 residues of the Bri2 peptide extended by up to 12 random residues
Settings: random library (experiment): 1;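 active = nucleation score significantly above 0 at FDR 0.05; inactive = not significantly above 0 or absent from output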
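Also: [psi-pin-] Saccharomyces cerevisiae expressing SupN fusions, induced by 100 µM Cu2SO4, selected 7 d at 30 °C without adenine and uracil, scored by deep sequencing of output versus input.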

Sequence | amyloid nucleation score
EASNCFAIRHFENKFAVETLICGSACLAIMLVPR | inactive
EASNCFAIRHFENKFAVETLICHVSHFVLVLQRV | inactive
EASNCFAIRHFENKFAVETLICFVDR | 4.96
EASNCFAIRHFENKFAVETLICISRSLSLTLPSI | -0.0479
EASNCFAIRHFENKFAVETLICGASWPRVSERVS | inactive
EASNCFAIRHFENKFAVETLICRAVV | inactive
EASNCFAIRHFENKFAVETLICWCR | inactive
EASNCFAIRHFENKFAVETLICDMLVKK | inactive
EASNCFAIRHFENKFAVETLICGMVH | inactive
EASNCFAIRHFENKFAVETLICRLN | inactive
EASNCFAIRHFENKFAVETLICMCVLMYTFAMGW | inactive
EASNCFAIRHFENKFAVETLICQTH | 0.582
EASNCFAIRHFENKFAVETLICGTELTLRRSHLV | inactive
EASNCFAIRHFENKFAVETLICVRLYIQGMPPYW | 2.76
EASNCFAIRHFENKFAVETLICIDVHVKDVSWI | inactive
EASNCFAIRHFENKFAVETLICAARVAWGHGHVE | 1.97
EASNCFAIRHFENKFAVETLICTVGVGGMRCRWH | inactive
EASNCFAIRHFENKFAVETLICLYY | 2.62

Sequence | amyloid nucleation score
EASNCFAIRHFENKFAVETLICVTESPMLSLSLV | 1.29
EASNCFAIRHFENKFAVETLICRSQGTWSEAMGF | inactive
EASNCFAIRHFENKFAVETLICVVGRSCESGGAV | inactive
EASNCFAIRHFENKFAVETLICPQKPAMTLDGMS | inactive
EASNCFAIRHFENKFAVETLICHARKCVQRHVGG | -0.12
EASNCFAIRHFENKFAVETLICLSNPCKSDGRKT | inactive
EASNCFAIRHFENKFAVETLICLVNMDRYAEDCG | 7.16
EASNCFAIRHFENKFAVETLICRFKDTRLVYMLQ | inactive
EASNCFAIRHFENKFAVETLICFVLFSRLLGRLQ | inactive
EASNCFAIRHFENKFAVETLICACHDVKYLGPRT | 8.39
EASNCFAIRHFENKFAVETLICTGERRKWRAITG | inactive
EASNCFAIRHFENKFAVETLICLSSWLYLALAPI | inactive
EASNCFAIRHFENKFAVETLICVNTFGQVPLYCR | inactive
EASNCFAIRHFENKFAVETLICYE | 1.56
EASNCFAIRHFENKFAVETLICGCLRVGTHVVKG | inactive
EASNCFAIRHFENKFAVETLICYYVVGSEMQSSG | 5.98
EASNCFAIRHFENKFAVETLICGLRVFRTCHPRV | inactive

Same assay, conditions: random library (experiment): 2

Sequence | amyloid nucleation score
EASNCFAIRHFENKFAVETLICGARGEERGLVHG | inactive
EASNCFAIRHFENKFAVETLICCDSGSITVITFL | inactive
EASNCFAIRHFENKFAVETLICRDHTWLMDFSTQ | 2.56
EASNCFAIRHFENKFAVETLICVGYVERRVYGWL | 8.56
EASNCFAIRHFENKFAVETLICRMAVPS | inactive
EASNCFAIRHFENKFAVETLICVLYLDSCNNA | 8.21
EASNCFAIRHFENKFAVETLICMC | 6.63
EASNCFAIRHFENKFAVETLICYNVVVGGELKR | 7.74
EASNCFAIRHFENKFAVETLICRIWD | 1.59
EASNCFAIRHFENKFAVETLICAVVIYPVTCLEA | inactive
EASNCFAIRHFENKFAVETLICFGMGNSVGDGLG | 8.68
EASNCFAIRHFENKFAVETLICDIVRI | inactive
EASNCFAIRHFENKFAVETLICDIAHKFVDFYSR | inactive
EASNCFAIRHFENKFAVETLICNGT | inactive
EASNCFAIRHFENKFAVETLICNWKNLRMCAVRA | inactive
EASNCFAIRHFENKFAVETLICRSCISHLVGSCG | inactive
EASNCFAIRHFENKFAVETLICLLRCYSRLVSSK | inactive

Sequence | amyloid nucleation score
EASNCFAIRHFENKFAVETLICCIKLWKSCYCFS | inactive
EASNCFAIRHFENKFAVETLICQLASLCLRTYGC | -0.285
EASNCFAIRHFENKFAVETLICLCLRTYCVMGTL | inactive
EASNCFAIRHFENKFAVETLICCVQSFWKGSVEG | 8.35
EASNCFAIRHFENKFAVETLICVTFHWQMPLLRR | inactive
EASNCFAIRHFENKFAVETLICNKGWNPVGCAYV | inactive
EASNCFAIRHFENKFAVETLICMTFWTKATRAYE | 4.41
EASNCFAIRHFENKFAVETLICIGLFVRM | inactive
EASNCFAIRHFENKFAVETLICCSQRVDGLYDFL | 7.79
EASNCFAIRHFENKFAVETLICLDYNC | 5.3
EASNCFAIRHFENKFAVETLICLHAIILVGIQAW | inactive
EASNCFAIRHFENKFAVETLICYIPRSTIYSCCW | inactive
EASNCFAIRHFENKFAVETLICWTSMFERDFSTE | 3.55
EASNCFAIRHFENKFAVETLICAMYMIWYCKRIR | inactive
EASNCFAIRHFENKFAVETLICNTRRHKDWSCVG | inactive
EASNCFAIRHFENKFAVETLICPTSRWRMCCGWL | inactive
EASNCFAIRHFENKFAVETLICRSRFSSCIGKGG | 0.423

Same assay, conditions: random library (experiment): 3

Sequence | amyloid nucleation score
EASNCFAIRHFENKFAVETLICADCKLNGSVRGR | inactive
EASNCFAIRHFENKFAVETLICVTFWTKNVWRSL | 2.61
EASNCFAIRHFENKFAVETLICMFSAIVADRFLG | inactive
EASNCFAIRHFENKFAVETLICEVTFRPEKWFTR | 3.51
EASNCFAIRHFENKFAVETLICPRRMCRFKICAN | inactive
EASNCFAIRHFENKFAVETLICCTYRNVGEGKRC | 0.582
EASNCFAIRHFENKFAVETLICVLNGGCYGKDCR | 8.81
EASNCFAIRHFENKFAVETLICGESVSWCCMLSD | 2.29
EASNCFAIRHFENKFAVETLICDSEEVVKSNYAA | 3.58
EASNCFAIRHFENKFAVETLICMISPRMREAQPG | inactive
EASNCFAIRHFENKFAVETLICGWWPVSRVGASG | inactive
EASNCFAIRHFENKFAVETLICAFDEWLFLRSFR | inactive
EASNCFAIRHFENKFAVETLICIEACSNPLDGKG | 0
EASNCFAIRHFENKFAVETLICFDGLGV | inactive
EASNCFAIRHFENKFAVETLICGATLRPCRSLKY | inactive
EASNCFAIRHFENKFAVETLICVYKMSFSNWYKV | 0.00905
EASNCFAIRHFENKFAVETLICFTLGQHRFRSTV | inactive
